Measurements reported in publication PMC12619835.
These are yes or no findings as the source states them, for the method shown. For some assays here: In cells and extracts the contact can be indirect. Some binding calls cover weakened binding; strength is not graded here.

Amino acid sequences for entries named in this document (tags omitted).
UniProt P01106: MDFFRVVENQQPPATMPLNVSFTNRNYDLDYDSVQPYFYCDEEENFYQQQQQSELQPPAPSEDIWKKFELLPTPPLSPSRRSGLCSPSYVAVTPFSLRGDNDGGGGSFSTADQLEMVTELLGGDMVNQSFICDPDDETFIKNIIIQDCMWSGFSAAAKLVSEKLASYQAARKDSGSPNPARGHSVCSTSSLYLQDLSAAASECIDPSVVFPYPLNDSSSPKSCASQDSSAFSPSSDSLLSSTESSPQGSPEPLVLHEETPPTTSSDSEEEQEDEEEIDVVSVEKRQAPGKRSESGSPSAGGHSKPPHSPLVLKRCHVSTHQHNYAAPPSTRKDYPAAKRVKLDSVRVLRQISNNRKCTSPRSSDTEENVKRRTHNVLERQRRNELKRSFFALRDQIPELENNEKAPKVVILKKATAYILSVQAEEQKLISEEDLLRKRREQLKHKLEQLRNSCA
UniProt P10242: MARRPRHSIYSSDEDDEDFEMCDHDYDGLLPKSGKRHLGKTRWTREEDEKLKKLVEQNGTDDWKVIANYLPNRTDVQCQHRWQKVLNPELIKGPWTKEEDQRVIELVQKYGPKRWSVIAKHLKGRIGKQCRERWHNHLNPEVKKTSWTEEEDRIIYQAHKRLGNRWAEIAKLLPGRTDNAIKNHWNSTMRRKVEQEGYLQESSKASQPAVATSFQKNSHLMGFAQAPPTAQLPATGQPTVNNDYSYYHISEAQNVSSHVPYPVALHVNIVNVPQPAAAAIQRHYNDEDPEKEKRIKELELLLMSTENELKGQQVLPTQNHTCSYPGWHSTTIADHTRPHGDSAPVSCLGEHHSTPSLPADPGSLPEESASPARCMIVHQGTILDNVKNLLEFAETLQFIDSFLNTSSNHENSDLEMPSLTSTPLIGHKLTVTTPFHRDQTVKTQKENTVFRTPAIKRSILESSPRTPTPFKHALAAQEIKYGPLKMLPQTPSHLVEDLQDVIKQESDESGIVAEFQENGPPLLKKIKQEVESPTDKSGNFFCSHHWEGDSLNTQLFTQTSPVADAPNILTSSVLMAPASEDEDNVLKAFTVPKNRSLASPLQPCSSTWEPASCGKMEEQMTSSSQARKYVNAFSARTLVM
UniProt O43474: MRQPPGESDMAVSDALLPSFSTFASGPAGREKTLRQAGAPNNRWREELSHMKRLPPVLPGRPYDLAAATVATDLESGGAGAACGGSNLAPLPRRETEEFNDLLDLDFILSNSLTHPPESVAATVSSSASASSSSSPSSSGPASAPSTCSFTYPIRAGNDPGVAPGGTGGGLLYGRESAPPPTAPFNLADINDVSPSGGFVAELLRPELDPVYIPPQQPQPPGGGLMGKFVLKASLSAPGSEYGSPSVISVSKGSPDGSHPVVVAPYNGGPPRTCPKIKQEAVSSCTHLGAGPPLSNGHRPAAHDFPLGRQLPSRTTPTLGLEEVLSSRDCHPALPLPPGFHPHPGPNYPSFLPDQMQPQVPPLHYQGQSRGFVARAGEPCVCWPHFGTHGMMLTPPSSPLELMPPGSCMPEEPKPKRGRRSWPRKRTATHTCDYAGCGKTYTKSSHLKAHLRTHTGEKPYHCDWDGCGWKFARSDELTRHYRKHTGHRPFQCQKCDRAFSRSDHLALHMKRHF
UniProt Q13887: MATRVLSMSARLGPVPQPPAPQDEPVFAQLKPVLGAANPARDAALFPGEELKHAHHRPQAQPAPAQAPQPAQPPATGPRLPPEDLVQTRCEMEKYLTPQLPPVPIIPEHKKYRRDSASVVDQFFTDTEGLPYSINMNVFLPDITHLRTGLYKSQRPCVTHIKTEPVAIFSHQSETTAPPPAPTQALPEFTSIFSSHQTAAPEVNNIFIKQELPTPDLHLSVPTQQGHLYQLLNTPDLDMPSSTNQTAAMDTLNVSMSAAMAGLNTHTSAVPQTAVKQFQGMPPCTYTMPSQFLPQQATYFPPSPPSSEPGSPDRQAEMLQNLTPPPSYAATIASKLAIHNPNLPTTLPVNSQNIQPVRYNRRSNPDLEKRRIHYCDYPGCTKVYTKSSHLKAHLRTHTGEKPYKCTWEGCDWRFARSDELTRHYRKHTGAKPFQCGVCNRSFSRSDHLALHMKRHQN
UniProt Q9Y265: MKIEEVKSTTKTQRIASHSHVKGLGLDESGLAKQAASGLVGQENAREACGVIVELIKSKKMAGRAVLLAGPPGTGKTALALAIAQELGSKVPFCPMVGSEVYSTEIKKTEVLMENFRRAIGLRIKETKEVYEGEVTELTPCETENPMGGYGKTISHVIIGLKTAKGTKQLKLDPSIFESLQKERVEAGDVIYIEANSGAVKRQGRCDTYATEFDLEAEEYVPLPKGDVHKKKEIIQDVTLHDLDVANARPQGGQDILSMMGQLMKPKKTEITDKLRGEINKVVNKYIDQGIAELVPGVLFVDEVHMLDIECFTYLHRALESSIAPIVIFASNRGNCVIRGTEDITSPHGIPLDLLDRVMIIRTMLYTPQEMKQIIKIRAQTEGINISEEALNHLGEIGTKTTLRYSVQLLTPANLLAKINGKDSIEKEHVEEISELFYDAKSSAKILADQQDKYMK
UniProt Q92993: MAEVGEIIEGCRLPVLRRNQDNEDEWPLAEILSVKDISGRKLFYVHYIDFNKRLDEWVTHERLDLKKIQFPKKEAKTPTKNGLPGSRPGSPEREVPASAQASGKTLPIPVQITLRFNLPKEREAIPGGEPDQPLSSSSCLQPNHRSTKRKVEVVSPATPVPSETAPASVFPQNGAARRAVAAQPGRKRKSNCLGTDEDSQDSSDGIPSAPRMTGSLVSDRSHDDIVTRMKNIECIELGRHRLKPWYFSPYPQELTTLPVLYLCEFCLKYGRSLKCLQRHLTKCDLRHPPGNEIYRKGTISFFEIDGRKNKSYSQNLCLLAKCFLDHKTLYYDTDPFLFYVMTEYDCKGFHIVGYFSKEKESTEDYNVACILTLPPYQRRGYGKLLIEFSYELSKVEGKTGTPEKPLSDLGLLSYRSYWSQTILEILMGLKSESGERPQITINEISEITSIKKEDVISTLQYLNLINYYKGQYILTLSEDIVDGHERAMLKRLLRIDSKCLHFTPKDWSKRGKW
UniProt Q6ZRS2: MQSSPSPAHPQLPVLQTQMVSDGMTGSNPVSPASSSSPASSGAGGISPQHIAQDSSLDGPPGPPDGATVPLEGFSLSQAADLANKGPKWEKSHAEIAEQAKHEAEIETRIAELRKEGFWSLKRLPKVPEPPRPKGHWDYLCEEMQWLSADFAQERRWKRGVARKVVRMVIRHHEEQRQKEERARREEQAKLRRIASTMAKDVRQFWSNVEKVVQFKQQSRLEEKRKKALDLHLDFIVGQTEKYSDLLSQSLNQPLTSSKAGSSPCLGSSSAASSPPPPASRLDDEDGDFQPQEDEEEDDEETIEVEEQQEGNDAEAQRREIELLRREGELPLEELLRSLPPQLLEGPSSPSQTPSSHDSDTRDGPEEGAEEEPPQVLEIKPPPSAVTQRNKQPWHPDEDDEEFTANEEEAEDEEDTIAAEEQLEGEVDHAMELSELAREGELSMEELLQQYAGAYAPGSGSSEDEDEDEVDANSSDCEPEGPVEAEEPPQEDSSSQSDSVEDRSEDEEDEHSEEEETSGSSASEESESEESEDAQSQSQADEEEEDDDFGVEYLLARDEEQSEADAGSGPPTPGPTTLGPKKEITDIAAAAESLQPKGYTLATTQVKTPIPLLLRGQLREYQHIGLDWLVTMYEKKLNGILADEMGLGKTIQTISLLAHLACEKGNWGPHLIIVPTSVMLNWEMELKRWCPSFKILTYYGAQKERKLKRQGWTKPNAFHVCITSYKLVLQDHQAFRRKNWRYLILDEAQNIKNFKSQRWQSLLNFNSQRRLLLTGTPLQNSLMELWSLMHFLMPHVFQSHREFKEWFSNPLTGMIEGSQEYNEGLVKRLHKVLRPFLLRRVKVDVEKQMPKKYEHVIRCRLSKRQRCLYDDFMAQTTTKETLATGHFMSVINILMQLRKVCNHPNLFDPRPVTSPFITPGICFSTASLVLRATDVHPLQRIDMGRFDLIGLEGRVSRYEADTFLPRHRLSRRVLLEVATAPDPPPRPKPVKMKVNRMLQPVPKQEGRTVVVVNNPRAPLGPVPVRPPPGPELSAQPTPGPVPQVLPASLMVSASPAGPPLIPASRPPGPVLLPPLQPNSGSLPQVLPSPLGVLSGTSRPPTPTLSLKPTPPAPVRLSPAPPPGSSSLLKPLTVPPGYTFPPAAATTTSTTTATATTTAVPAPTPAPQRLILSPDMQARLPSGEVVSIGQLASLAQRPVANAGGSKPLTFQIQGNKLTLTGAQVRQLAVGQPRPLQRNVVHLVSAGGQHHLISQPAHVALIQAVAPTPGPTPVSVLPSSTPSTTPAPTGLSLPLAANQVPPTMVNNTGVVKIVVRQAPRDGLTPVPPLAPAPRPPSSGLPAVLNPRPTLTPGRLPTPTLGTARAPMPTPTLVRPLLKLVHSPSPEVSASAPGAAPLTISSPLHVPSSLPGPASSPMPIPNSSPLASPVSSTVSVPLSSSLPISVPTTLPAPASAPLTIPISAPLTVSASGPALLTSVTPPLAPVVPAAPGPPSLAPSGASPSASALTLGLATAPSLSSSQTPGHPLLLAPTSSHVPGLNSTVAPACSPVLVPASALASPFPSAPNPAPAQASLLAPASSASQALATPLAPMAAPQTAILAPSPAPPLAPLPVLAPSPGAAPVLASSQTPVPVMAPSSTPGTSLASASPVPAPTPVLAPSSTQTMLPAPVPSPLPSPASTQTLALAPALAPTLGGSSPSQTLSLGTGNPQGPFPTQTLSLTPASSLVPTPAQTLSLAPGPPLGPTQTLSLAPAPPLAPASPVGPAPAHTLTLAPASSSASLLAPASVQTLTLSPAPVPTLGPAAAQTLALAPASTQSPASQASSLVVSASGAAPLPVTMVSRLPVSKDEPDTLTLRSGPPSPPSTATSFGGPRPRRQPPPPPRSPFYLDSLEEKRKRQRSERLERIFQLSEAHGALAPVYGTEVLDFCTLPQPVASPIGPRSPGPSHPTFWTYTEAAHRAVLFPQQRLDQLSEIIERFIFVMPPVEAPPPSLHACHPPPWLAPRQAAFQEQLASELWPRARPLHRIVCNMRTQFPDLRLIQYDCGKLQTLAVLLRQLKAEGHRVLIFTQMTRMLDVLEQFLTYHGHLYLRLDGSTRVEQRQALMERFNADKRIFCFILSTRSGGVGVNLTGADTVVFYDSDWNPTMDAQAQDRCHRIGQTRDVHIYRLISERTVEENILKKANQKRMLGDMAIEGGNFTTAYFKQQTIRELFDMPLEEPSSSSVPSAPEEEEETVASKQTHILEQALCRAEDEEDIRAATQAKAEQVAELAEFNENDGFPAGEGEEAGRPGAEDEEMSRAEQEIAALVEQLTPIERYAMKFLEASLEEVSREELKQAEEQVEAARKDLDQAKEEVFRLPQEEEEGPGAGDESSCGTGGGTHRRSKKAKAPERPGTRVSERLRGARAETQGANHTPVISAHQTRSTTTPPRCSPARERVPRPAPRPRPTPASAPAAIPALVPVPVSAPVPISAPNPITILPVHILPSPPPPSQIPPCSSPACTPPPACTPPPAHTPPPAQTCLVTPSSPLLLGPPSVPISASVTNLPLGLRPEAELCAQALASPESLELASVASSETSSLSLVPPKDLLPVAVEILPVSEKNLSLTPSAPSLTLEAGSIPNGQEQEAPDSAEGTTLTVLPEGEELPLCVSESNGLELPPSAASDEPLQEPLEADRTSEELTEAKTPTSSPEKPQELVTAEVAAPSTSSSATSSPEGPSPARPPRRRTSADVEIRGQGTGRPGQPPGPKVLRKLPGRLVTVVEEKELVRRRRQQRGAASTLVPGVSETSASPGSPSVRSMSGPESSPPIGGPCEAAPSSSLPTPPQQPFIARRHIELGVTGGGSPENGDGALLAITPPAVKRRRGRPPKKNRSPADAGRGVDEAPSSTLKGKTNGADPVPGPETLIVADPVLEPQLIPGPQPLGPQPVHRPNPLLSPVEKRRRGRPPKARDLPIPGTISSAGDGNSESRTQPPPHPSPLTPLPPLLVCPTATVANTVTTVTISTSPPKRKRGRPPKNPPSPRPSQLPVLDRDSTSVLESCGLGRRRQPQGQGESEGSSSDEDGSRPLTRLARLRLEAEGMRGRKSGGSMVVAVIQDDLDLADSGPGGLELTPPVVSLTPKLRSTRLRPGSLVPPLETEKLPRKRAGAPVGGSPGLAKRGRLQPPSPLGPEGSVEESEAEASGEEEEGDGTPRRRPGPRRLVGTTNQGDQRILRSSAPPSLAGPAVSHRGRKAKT

Key:
[1] = target: MYC (UniProt P01106); experiment: co-IP; HEK293T transfected with a FLAG-tagged cDNA, N-terminal HA-tagged RUVBL1 and C-terminal HA-tagged RUVBL2; nuclear lysates on M2 FLAG agarose overnight, washes with 150-350 mM NaCl, 4 °C; HA immunoblot; in some experiments CB-6644 for 4 h before the IP and in lysis and wash buffers
[2] = target: MYB (UniProt P10242); experiment: as above
[3] = target: SOX10 (UniProt P56693); experiment: as above
[4] = target: KLF4 (UniProt O43474); experiment: as above
[5] = target: T1, POU2F3 (UniProt Q9UKI9); experiment: as above
T1 sequence: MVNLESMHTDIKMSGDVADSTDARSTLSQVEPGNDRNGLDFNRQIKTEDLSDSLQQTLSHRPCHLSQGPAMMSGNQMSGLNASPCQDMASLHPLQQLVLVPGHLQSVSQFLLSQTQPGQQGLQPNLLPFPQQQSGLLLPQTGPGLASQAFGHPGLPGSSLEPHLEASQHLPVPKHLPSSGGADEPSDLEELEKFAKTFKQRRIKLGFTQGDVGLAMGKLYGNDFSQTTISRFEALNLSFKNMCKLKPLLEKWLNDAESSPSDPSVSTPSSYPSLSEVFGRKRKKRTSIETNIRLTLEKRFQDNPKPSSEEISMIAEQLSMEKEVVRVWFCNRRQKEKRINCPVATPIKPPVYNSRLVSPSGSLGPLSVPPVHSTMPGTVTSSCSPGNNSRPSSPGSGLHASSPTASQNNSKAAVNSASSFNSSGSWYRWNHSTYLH

[6] = target: FLAG-KLF5 (human) (UniProt Q13887); experiment: co-IP; anti-FLAG co-immunoprecipitation-Western blot of FLAG-KLF5 (FLAG-GFP as negative control); blots for RUVBL1, RUVBL2, RPAP3, SRCAP, TIP60, INO80; cell line not stated
[7] = target: recombinant MBP-tagged KLF5 (human) (UniProt Q13887); experiment: pull-down; MBP-KLF5 (10 μg) or MBP (5 μg) on amylose resin; 10 μg RUVBL1, 10 μg RUVBL2 or 20 μg RUVBL1/2 hetero-hexamer added for 2 h in 50 mM Na3PO4 pH 7.5, 0.1 mM EDTA, 200 mM NaCl, 1 mM DTT, 5% glycerol; washes with 250 mM NaCl; maltose elution; Western blot; 4 °C; both purified

N-terminal HA-tagged RUVBL1 (from UniProt Q9Y265 1-456)
binding [1]: binds
binding [2]: binds
binding [3]: binds
binding [4]: no binding
binding [5]: binds

TIP60 (from UniProt Q92993 1-513)
binding [6]: no binding

RUVBL1 (purified, recombinant, alone) (from UniProt Q9Y265 1-456)
binding [7]: no binding (tested: 10 μg of RUVBL1 per IP)

SRCAP (from UniProt Q6ZRS2 1-3230)
binding [6]: no binding
